Experimental data from PubChem BioAssay AID360 (National Center for Advancing Translational Sciences (NCATS), 2006).
The whole screen tested about 48,000 compounds, of which about 550 (1.1%) were called active. About 4% were inconclusive and are not listed. Rule as the data show it: active = potency below about 15 µM; inconclusive = mostly about 16 µM to 33 µM; inactive = weaker than that. The list shows a part of the results.

target: Lysosomal acid glucosylceramidase (Homo sapiens) (UniProt P04062); assay: Glucocerebrosidase; conditions: purified enzyme, resorufin glucoside fluorescence (screen aimed at inhibitors), 20 min;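 also: the screen sought inhibitors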
Summary of the method: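 Wild-type enzyme at 0.2 nM final in 50mM citric acid/KH2PO4, 10mM sodium taurocholate, 0.01% tween-20, pH 5.9, with resorufin beta-D-glucopyranoside at 30 uM final. Compounds titrated, 20 min at RT, red fluorescence read; AC50 from titration.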
Potency is read from the fitted curve at half-maximal effect.

UniProt P04062, sequence (P04062 whole entry, looked up): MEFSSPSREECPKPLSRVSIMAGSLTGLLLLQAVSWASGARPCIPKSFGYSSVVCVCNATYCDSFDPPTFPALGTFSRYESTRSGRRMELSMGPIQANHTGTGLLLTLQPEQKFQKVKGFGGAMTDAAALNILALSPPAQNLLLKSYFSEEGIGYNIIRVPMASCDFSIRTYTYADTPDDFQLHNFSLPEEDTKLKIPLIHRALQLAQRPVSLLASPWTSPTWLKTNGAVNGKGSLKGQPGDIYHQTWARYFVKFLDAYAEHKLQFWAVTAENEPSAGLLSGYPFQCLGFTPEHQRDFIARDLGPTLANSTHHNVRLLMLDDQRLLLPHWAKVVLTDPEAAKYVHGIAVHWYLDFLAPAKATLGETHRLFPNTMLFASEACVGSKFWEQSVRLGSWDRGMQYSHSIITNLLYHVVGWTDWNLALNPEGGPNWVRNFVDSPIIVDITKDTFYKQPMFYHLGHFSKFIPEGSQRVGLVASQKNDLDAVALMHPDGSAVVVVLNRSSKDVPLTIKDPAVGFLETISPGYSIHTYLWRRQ

Q: For `CCOC(=O)c1ccc(N2C(=O)c3n[nH]c(C)c3C2c2ccc(OC)c(OC)c2)cc1` (stereo not drawn), which Potency is on record?
A: Its Potency is inactive: > 76.9 µM.

Q: For `CN=C1CC(C)(C)CC(=O)/C1=C(/O)CCC(=O)NC`, which Potency is on record?
A: Its Potency is inactive: > 76.9 µM.

Q: With `O=C1CCC(=O)N1CCCCCc1nc(-c2ccccc2)no1` as the compound, how does the Potency read?
A: The Potency was inactive: > 76.9 µM.

Q: For `CCC(C)NC(=O)C(Cc1ccccc1)NS(=O)(=O)c1cccc2nsnc12` (stereo not drawn), which Potency is on record?
A: Its Potency is inactive: > 76.9 µM.

Q: How did the Potency turn out when `Cc1ccc(C)c(-n2c(CNC(=O)c3ccco3)nnc2SCC(=O)Nc2nccs2)c1` was run?
A: Its Potency is inactive: > 76.9 µM.

Q: With `CCOC(=O)C1CCN(C(=O)COc2ccc(Br)cc2)CC1` as the compound, how does the Potency read?
A: Its Potency is inactive: > 76.9 µM.

Q: Which Potency does the source give for `Cc1cc(C)c2nc(SCC(=O)N3CCCCC3)c(C#N)cc2c1` here?
A: Its Potency is inactive: > 76.9 µM.

Q: Which Potency does the source give for `COc1ccc(-c2cn3c(C)c(C(=O)NC(C)C)sc3n2)cc1` here?
A: The Potency was inactive: > 76.9 µM.

Q: For `CN1CCN(CC(=O)N(Cc2c(C#N)c3ccccc3n2C)c2ccccc2)CC1`, which Potency is on record?
A: The Potency was inactive: > 76.9 µM.

Q: For `Cc1ccccc1-c1noc(N)c1C#N`, which Potency is on record?
A: Its Potency is inactive: > 76.9 µM.

Q: `O=C(O)c1cccc(S(=O)(=O)Nc2ccccc2Cl)c1` was tested. Which Potency did it give?
A: Its Potency is inactive: > 76.9 µM.

Q: For `FC(F)(F)c1nnc2ccc(N3CCOCC3)nn12`, which Potency is on record?
A: The Potency was inactive: > 76.9 µM.

Q: How did the Potency turn out when `CCOC(=O)CNC(=O)CSc1ncnc2c1cnn2-c1ccc(OC)cc1` was run?
A: The Potency was inactive: > 76.9 µM.

Q: `COc1ccc(OC)c2[nH]c(=O)c(CCNS(=O)(=O)c3ccccc3)cc12` was tested. Which Potency did it give?
A: The Potency was inactive: > 76.9 µM.

Q: How did the Potency turn out when `Cc1ccc(C)c(N2CCN(C(=O)Cn3cccc3)CC2)c1` was run?
A: The Potency was inactive: > 76.9 µM.

Q: `CCOC(=O)C1CN(S(=O)(=O)c2ccc(C)cc2)CCN1S(=O)(=O)c1ccc(C)cc1` (stereo not drawn) was tested. Which Potency did it give?
A: The Potency was inactive: > 76.9 µM.

Q: How did the Potency turn out when `Cc1oc(-c2cccc(Cl)c2)nc1CN1CCC(C(=O)NCc2ccco2)CC1` was run?
A: The Potency was inactive: > 76.9 µM.

Q: `O=c1[nH]c2c(s1)C(c1ccccc1)C1C3CCC(C3)C1S2` (stereo not drawn) was tested. Which Potency did it give?
A: The Potency was inactive: > 15.4 µM.

Q: For `Cc1oc2cc(OCC(=O)O)ccc2c(=O)c1Oc1ccccc1`, which Potency is on record?
A: The Potency was inactive: > 76.9 µM.

Q: Which Potency does the source give for `COc1cccc(CNCCOCCO)c1OC` here?
A: Its Potency is inactive: > 76.9 µM.

Q: With `O=C(NCCSCc1ccco1)Nc1cccc(Cl)c1` as the compound, how does the Potency read?
A: Its Potency is inactive: > 76.9 µM.

Q: For `Cc1noc(C)c1C(=O)Nc1sc(C)c(-c2ccccc2)c1C#N`, which Potency is on record?
A: The Potency was inactive: > 76.9 µM.

Q: `COc1cc(-c2nnc(SCC(=O)N3CCCC3)o2)cc(OC)c1OC` was tested. Which Potency did it give?
A: Its Potency is inactive: > 76.9 µM.

Q: For `c1ccc2c(Oc3ccc4c(c3)OCO4)nncc2c1`, which Potency is on record?
A: Its Potency is inactive: > 76.9 µM.

Q: For `COc1ccc(NC(=O)NC2(C(=O)N3CCCCCC3)CCCCC2)cc1`, which Potency is on record?
A: Its Potency is inactive: > 76.9 µM.

Q: `O=C(N1CCC(O)(c2cccnc2)CC1)C12CC3CC(CC(C3)C1)C2` was tested. Which Potency did it give?
A: Its Potency is “inactive”.

Q: How did the Potency turn out when `Cc1ccc(S(=O)(=O)NC(CC(=O)O)c2ccccc2)c(C)c1` (stereo not drawn) was run?
A: The Potency was inactive: > 76.9 µM.

Q: `Cc1ccc(C(=O)NCc2nnc(SCC(=O)Nc3sc4c(c3C#N)CCCC4)n2C)cc1` was tested. Which Potency did it give?
A: Its Potency is inactive: > 76.9 µM.

Q: Which Potency does the source give for `O=C(NCC12CC3CC(CC(C3)C1)C2)c1cc2n(n1)C(C(F)(F)F)CC(c1ccco1)N2` (stereo not drawn) here?
A: Its Potency is active: 13.1 µM.

Q: For `COc1nc2c(C)cccc2cc1-c1noc(-c2ccco2)n1`, which Potency is on record?
A: Its Potency is “inactive”.

Q: For `CC(C)COC(=O)C(N)C(C(=O)OCC(C)C)c1ccccc1` (stereo not drawn), which Potency is on record?
A: Its Potency is inactive: > 76.9 µM.

Q: For `O=C(Nc1ccc(N2CCN(Cc3ccccc3)CC2)cc1)c1cccnc1`, which Potency is on record?
A: Its Potency is inactive: > 76.9 µM.

Q: For `COc1ccc(C2C3=C(CC(C)(C)CC3=O)Oc3ncn(Cc4ccco4)c(=N)c32)cc1` (stereo not drawn), which Potency is on record?
A: Its Potency is inactive: > 76.9 µM.

Q: `Cc1cc(C)n2nc(SCC(=O)NCc3ccco3)nc2n1` was tested. Which Potency did it give?
A: The Potency was inactive: > 76.9 µM.

Q: How did the Potency turn out when `O=C(CSc1nnc(Cc2ccccc2)n1-c1ccc(Cl)cc1)N1CCOCC1` was run?
A: Its Potency is inactive: > 76.9 µM.

Q: `C=CCOc1cccc(C2/C(=C(/O)c3ccccc3)C(=O)C(=O)N2CCCN2CCOCC2)c1` (stereo not drawn) was tested. Which Potency did it give?
A: The Potency was inactive: > 76.9 µM.

Q: Which Potency does the source give for `O=C(c1ccccc1)N1CCN(CC#Cc2ccccc2)CC1` here?
A: Its Potency is inactive: > 76.9 µM.

Q: For `Cc1ccc2nc(NC3=NCN(Cc4cccnc4)CN3)nc(C)c2c1`, which Potency is on record?
A: The Potency was inactive: > 76.9 µM.

Q: `COC(=O)Nc1nnc(Cc2ccc(OC)cc2)s1` was tested. Which Potency did it give?
A: The Potency was inactive: > 76.9 µM.

Q: With `COc1ccccc1OCC(=O)Nc1ccccn1` as the compound, how does the Potency read?
A: The Potency was inactive: > 76.9 µM.

Q: Which Potency does the source give for `CC(C)c1ccc(C(=O)N2CCN(CCO)CC2)cc1` here?
A: The Potency was inactive: > 76.9 µM.

Q: For `CC1(C)CC(=O)C=C(Nc2ccccn2)C1`, which Potency is on record?
A: The Potency was inactive: > 76.9 µM.

Q: How did the Potency turn out when `COc1cccc(CNC(=O)CN(C)S(=O)(=O)c2cnc[nH]2)c1` was run?
A: The Potency was inactive: > 76.9 µM.

Q: How did the Potency turn out when `CCOc1cc(C(=O)Nc2ccc3c(c2)OCO3)ccc1OC(F)F` was run?
A: The Potency was inactive: > 76.9 µM.

Q: Which Potency does the source give for `Fc1cccc(NCc2cn3ccccc3n2)c1` here?
A: Its Potency is inactive: > 76.9 µM.

Q: `NC(=O)C1CCN(C(=O)CSCc2ccccc2Cl)CC1` was tested. Which Potency did it give?
A: Its Potency is inactive: > 76.9 µM.

Q: `O=C(NCCc1ccccc1)C1CCN(S(=O)(=O)N2CCC3(CC2)OCCO3)CC1` was tested. Which Potency did it give?
A: The Potency was inactive: > 76.9 µM.

Q: `c1cnc(N2CCN(c3nc4ccccc4n4cnnc34)CC2)nc1` was tested. Which Potency did it give?
A: The Potency was inactive: > 76.9 µM.

Q: `O=C(CN1C(=O)c2ccccc2S1(=O)=O)Nc1ccc(S(=O)(=O)N2CCCCCC2)cc1` was tested. Which Potency did it give?
A: The Potency was inactive: > 76.9 µM.

Q: For `COc1ccc(OCC(O)Cn2c(Nc3ccccc3)nc3c2c(=O)n(C)c(=O)n3C)cc1` (stereo not drawn), which Potency is on record?
A: Its Potency is inactive: > 76.9 µM.

Q: Which Potency does the source give for `Fc1ccc(C(c2nnnn2Cc2cccs2)N2CCN(C3CCCC3)CC2)cc1` (stereo not drawn) here?
A: Its Potency is inactive: > 76.9 µM.

Q: For `Cc1c(NC(=O)OCCNC(=O)Nc2ccccc2)sc(=S)n1C`, which Potency is on record?
A: The Potency was inactive: > 76.9 µM.

Q: How did the Potency turn out when `CCN(Cc1cc2ccccc2[nH]c1=O)C(=O)C(C)C` was run?
A: The Potency was inactive: > 76.9 µM.

Q: How did the Potency turn out when `CCCS(=O)(=O)N1CCCC(C(=O)NCc2ccco2)C1` (stereo not drawn) was run?
A: The Potency was inactive: > 76.9 µM.

Q: How did the Potency turn out when `COc1ccc(OC)c(C(=O)c2coc3ccc(O)c(CN4CCOCC4)c23)c1` was run?
A: The Potency was inactive: > 76.9 µM.

Q: Which Potency does the source give for `COc1ccc(-c2nnc(SCC#CCO)o2)cc1OC` here?
A: Its Potency is inactive: > 76.9 µM.

Q: For `C=CCn1c(CNC(=O)CCC)nc2ccccc21`, which Potency is on record?
A: The Potency was inactive: > 76.9 µM.

Q: `COCCNC(=O)C(c1ccccc1)N(C(=O)Cn1nnc2ccccc21)c1cccnc1` (stereo not drawn) was tested. Which Potency did it give?
A: The Potency was inactive: > 76.9 µM.
